# Biological target: Recombinant heterodimeric HCV NS3/NS4A protease (strain 1a) (Hepatitis C virus genotype 1a, UniProt P27958)
# Assay: HCV continuous assay (spectrophotometric HCV NS3/NS4A serine protease inhibition assay)
# Type: biochemical, HCV (strain 1a)
# Settings: Table 1; ranges of Ki* values in HCV continuous assay
# Source text: The present invention relates to novel HCV protease inhibitors. This utility can be manifested in their ability to inhibit the HCV NS3/NS4a serine protease.
# Assay for HCV Protease Inhibitory Activity:
# • Spectrophotometric Assay: Spectrophotometric assay for the HCV serine protease can be performed on the inventive compounds by following the procedure described by R. Zhang et al, Analytical Biochemistry, 270 (1999) 268-275, the disclosure of which is incorporated herein by reference. The assay based on the proteolysis of chromogenic ester substrates is suitable for the continuous monitoring of HCV NS3 protease activity. The substrates are derived from the P side of the NS5A-NS5B junction sequence (Ac-DTEDWX(Nva), where X=A or P) whose C-terminal carboxyl groups are esterified with one of four different chromophoric alcohols (3- or 4-nitrophenol, 7-hydroxy-4-methyl-coumarin, or 4-phenylazophenol). Illustrated below are the synthesis, characterization and application of these novel spectrophotometric ester substrates to high throughput screening and detailed kinetic evaluation of HCV NS3 protease inhibitors. Materials and Methods:
# Materials: Chemical reagents for assay related buffers are obtained from Sigma Chemical Company (St. Louis, Mo.). Reagents for peptide synthesis were from Aldrich Chemicals, Novabiochem (San Diego, Calif.), Applied Biosystems (Foster City, Calif.) and Perseptive Biosystems (Framingham, Mass.). Peptides are synthesized manually or on an automated ABI model 431A synthesizer (from Applied Biosystems). UV/VIS Spectrometer model LAMBDA 12 was from Perkin Elmer (Norwalk, Conn.) and 96-well UV plates were obtained from Corning (Corning, N.Y.). The prewarming block can be from USA Scientific (Ocala, Fla.) and the 96-well plate vortexer is from Labline Instruments (Melrose Park, Ill.). […] Protein concentrations are determined by the Biorad dye method using recombinant HCV protease standards previously quantified by amino acid analysis. Prior to assay initiation, the enzyme storage buffer (50 mM sodium phosphate pH 8.0, 300 mM NaCl, 10% glycerol, 0.05% lauryl maltoside and 10 mM DTT) is exchanged for the assay buffer (25 mM MOPS pH 6.5, 300 mM NaCl, 10% glycerol, 0.05% lauryl maltoside, 5 μM EDTA and 5 μM DTT) utilizing a Biorad Bio-Spin P-6 prepacked column. • Substrate Synthesis and Purification: The synthesis of the substrates is done as reported by R. Zhang et al, (ibid.) and is initiated by anchoring Fmoc-Nva-OH to 2-chlorotrityl chloride resin using a standard protocol (K. Barlos et al, Int. J. Pept. Protein Res., 37 (1991), 513-520). The peptides are subsequently assembled, using Fmoc chemistry, either manually or on an automatic ABI model 431 peptide synthesizer. […] The combined filtrate and DCM wash is evaporated azeotropically (or repeatedly extracted by aqueous Na2CO3 solution) to remove the acid used in cleavage. The DCM phase is dried over Na2SO4 and evaporated.
# The ester substrates are assembled using standard acid-alcohol coupling procedures (K. Holmber et al, Acta Chem. Scand., B33 (1979) 410-412). Peptide fragments are dissolved in anhydrous pyridine (30-60 mg/ml) to which 10 molar equivalents of chromophore and a catalytic amount (0.1 eq.) of para-toluenesulfonic acid (PTSA) were added. Dicyclohexylcarbodiimide (DCC, 3 eq.) is added to initiate the coupling reactions. Product formation is monitored by HPLC and can be found to be complete following 12-72 hour reaction at room temperature. Pyridine solvent is evaporated under vacuum and further removed by azeotropic evaporation with toluene.
row,Compound,Ki
1,CC(C)(C)[C@@H](CN1CCCS1(=O)=O)NC(=O)N[C@H](C(=O)N1C[C@H]2[C@@H]([C@H]1C(=O)NC(CC1CC1)C(=O)C(N)=O)C2(C)C)C1CCCCC1 (stereo partly shown) [Compound 5140],≤ 50 nM
2,CCCC(NC(=O)[C@@H]1[C@@H]2[C@H](CN1C(=O)[C@@H](NC(=O)N[C@H](CN1CCCN(C)S1(=O)=O)C(C)(C)C)C(C)(C)C)C2(C)C)C(=O)C(=O)NC (stereo partly shown) [Compound 5128],≤ 50 nM
3,C=CCNC(=O)C(=O)C(CCCC)NC(=O)[C@@H]1[C@@H]2[C@H](CN1C(=O)[C@@H](NC(=O)N[C@H](CN1Cc3sccc3S1(=O)=O)C(C)(C)C)C(C)(C)C)C2(Cl)Cl (stereo partly shown) [Compound 5252],≤ 50 nM
4,CC(C)(C)[C@@H](CN1CCCCS1(=O)=O)NC(=O)N[C@H](C(=O)N1C[C@H]2[C@@H]([C@H]1C(=O)NC(CC1CCC1)C(=O)C(N)=O)C2(C)C)C1CCCCC1 (stereo partly shown) [Compound 5187],≤ 50 nM
5,C#CCCC(NC(=O)[C@@H]1[C@@H]2[C@H](CN1C(=O)[C@@H](NC(=O)N[C@H](CN1CCNS1(=O)=O)C(C)(C)C)C(C)(C)C)C2(C)C)C(=O)C(=O)NCC=C (stereo partly shown) [Compound 5156],≤ 50 nM
6,CC(C)N1CCN(C[C@@H](NC(=O)N[C@H](C(=O)N2C[C@H]3[C@@H]([C@H]2C(=O)NC(CC2CCC2)C(=O)C(N)=O)C3(C)C)C(C)(C)C)C(C)(C)C)S1(=O)=O (stereo partly shown) [Compound 5210],≤ 50 nM
7,C=CCNC(=O)C(=O)C(CCCC)NC(=O)[C@@H]1[C@@H]2[C@H](CN1C(=O)[C@@H](NC(=O)N[C@H](CN1CCCCS1(=O)=O)C(C)(C)C)C1CCCCC1)C2(C)C (stereo partly shown) [Compound 5183],≤ 50 nM
8,C=CCNC(=O)C(=O)C(CC1CC1)NC(=O)[C@@H]1[C@@H]2[C@H](CN1C(=O)[C@@H](NC(=O)N[C@H](CN1CCCNS1(=O)=O)C(C)(C)C)C(C)(C)C)C2(C)C (stereo partly shown) [Compound 5213],> 50 nM
9,C#CCCC(NC(=O)[C@@H]1[C@@H]2[C@H](CN1C(=O)[C@@H](NC(=O)NC1(CN3Cc4sccc4S3(=O)=O)CCCCC1)C(C)(C)C)C2(C)C)C(=O)C(=O)NCC=C (stereo partly shown) [Compound 5209],≤ 50 nM
10,C=CCNC(=O)C(=O)C(CC1CCC1)NC(=O)[C@@H]1[C@@H]2[C@H](CN1C(=O)[C@@H](NC(=O)N[C@H](CN1CCCN(C)S1(=O)=O)C(C)(C)C)C1CCCCC1)C2(C)C (stereo partly shown) [Compound 5239],≤ 50 nM
11,C=CCNC(=O)C(=O)C(CCC)NC(=O)[C@@H]1[C@@H]2[C@H](CN1C(=O)[C@@H](NC(=O)N[C@H](CN1CCN(C(C)=O)S1(=O)=O)C(C)(C)C)C(C)(C)C)C2(C)C (stereo partly shown) [Compound 5202],≤ 50 nM
12,CCCCC(NC(=O)[C@@H]1[C@@H]2[C@H](CN1C(=O)[C@@H](NC(=O)N[C@H](CN1CCCS1(=O)=O)C(C)(C)C)C(C)(C)C)C2(C)C)C(=O)C(=O)NC (stereo partly shown) [Compound 5124],≤ 50 nM

# Same assay, conditions: Table 2; ranges of Ki* values in HCV continuous assay
row,Compound,Ki
1,C=CCNC(=O)C(=O)C(CCCC)NC(=O)[C@@H]1[C@@H]2[C@H](CN1C(=O)[C@@H](NC(=O)N[C@H](Cn1ccccc1=O)C(C)(C)C)C(C)(C)C)C2(C)C (stereo partly shown) [Compound 5651],≤ 50 nM
2,C=CCNC(=O)C(=O)C(CCC)NC(=O)[C@@H]1[C@@H]2[C@H](CN1C(=O)[C@@H](NC(=O)N[C@H](CN1C(=O)CC3(CCCC3)CC1=O)C(C)(C)C)C1CCCCC1)C2(C)C (stereo partly shown) [Compound 5818],≤ 50 nM
3,CCCCC(NC(=O)[C@@H]1[C@@H]2[C@H](CN1C(=O)[C@@H](NC(=O)N[C@H](CN1C(=O)CCCC1=O)C(C)(C)C)C(C)(C)C)C2(C)C)C(=O)C(N)=O (stereo partly shown) [Compound 5676],≤ 50 nM
4,CCCC(NC(=O)[C@@H]1[C@@H]2[C@H](CN1C(=O)[C@@H](NC(=O)N[C@H](CN1C(=O)CCC1=O)C(C)(C)C)C(C)(C)C)C2(C)C)C(=O)C(N)=O (stereo partly shown) [Compound 5646],≤ 50 nM
5,C=CCNC(=O)C(=O)C(CC1CCC1)NC(=O)[C@@H]1[C@@H]2[C@H](CN1C(=O)[C@@H](NC(=O)N[C@H](CN1CCCCC1=O)C(C)(C)C)C(C)(C)C)C2(C)C (stereo partly shown) [Compound 5642],≤ 50 nM
6,C=CCNC(=O)C(=O)C(CCC)NC(=O)[C@@H]1[C@@H]2[C@H](CN1C(=O)[C@@H](NC(=O)N[C@H](CN1C(=O)c3ccccc3C1=O)C(C)(C)C)C(C)(C)C)C2(C)C (stereo partly shown) [Compound 5619],≤ 50 nM
7,CC(C)(C)[C@H](NC(=O)N[C@H](CN1C(=O)COCC1=O)C(C)(C)C)C(=O)N1C[C@H]2[C@@H]([C@H]1C(=O)NC(CC1CCC1)C(=O)C(N)=O)C2(C)C (stereo partly shown) [Compound 5697],≤ 50 nM
8,CCCCC(NC(=O)[C@@H]1[C@@H]2[C@H](CN1C(=O)[C@@H](NC(=O)N[C@H](CN1Cc3ccccc3C1=O)C(C)(C)C)C1CCCCC1)C2(C)C)C(=O)C(=O)NCC (stereo partly shown) [Compound 5767],≤ 50 nM
9,C=CCNC(=O)C(=O)C(CCCC)NC(=O)[C@@H]1[C@@H]2[C@H](CN1C(=O)[C@@H](NC(=O)N[C@H](CN1C(=O)CCCC1=O)C(C)(C)C)C(C)(C)C)C2(C)C (stereo partly shown) [Compound 5673],≤ 50 nM
10,C=CCNC(=O)C(=O)C(CC1CC1)NC(=O)[C@@H]1[C@@H]2[C@H](CN1C(=O)[C@@H](NC(=O)N[C@H](CN1C(=O)Cc3ccccc3C1=O)C(C)(C)C)C(C)(C)C)C2(C)C (stereo partly shown) [Compound 5739],≤ 50 nM
11,CCCCC(NC(=O)[C@@H]1[C@@H]2[C@H](CN1C(=O)[C@@H](NC(=O)N[C@H](CN1C(=O)CC(C)(C)CC1=O)C(C)(C)C)C1CCCCC1)C2(C)C)C(=O)C(=O)NCCC (stereo partly shown) [Compound 5808],≤ 50 nM
12,CC(C)(C)[C@H](NC(=O)N[C@H](CN1CCCNC1=O)C(C)(C)C)C(=O)N1C[C@H]2[C@@H]([C@H]1C(=O)NC(CC1CCC1)C(=O)C(N)=O)C2(C)C (mixture of isomers) [Compound 5665],≤ 50 nM
13,C#CCCC(NC(=O)[C@@H]1[C@@H]2[C@H](CN1C(=O)[C@@H](NC(=O)N[C@H](CN1C(=O)CC(C)(C)CC1=O)C(C)(C)C)C1CCCCC1)C2(C)C)C(=O)C(=O)NCC=C (stereo partly shown) [Compound 5785],≤ 50 nM
14,C=CCNC(=O)C(=O)C(CC1CC1)NC(=O)[C@@H]1[C@@H]2[C@H](CN1C(=O)[C@@H](NC(=O)N[C@H](CN1CCCCC1=O)C(C)(C)C)C1CCCCC1)C2(C)C (stereo partly shown) [Compound 5714],≤ 50 nM
15,CC(C)(C)[C@H](NC(=O)N[C@H](CN1C(=O)CCCC1=O)C(C)(C)C)C(=O)N1C[C@H]2[C@@H]([C@H]1C(=O)NC(CC1CC1)C(=O)C(N)=O)C2(C)C (stereo partly shown) [Compound 5674],≤ 50 nM
16,CC(C)[C@@H](CN1CCOC1=O)NC(=O)N[C@H](C(=O)N1C[C@H]2[C@@H]([C@H]1C(=O)NC(CC1CC1)C(=O)C(N)=O)C2(C)C)C(C)(C)C (stereo partly shown) [Compound 5611],≤ 50 nM
17,CCCC(NC(=O)[C@@H]1[C@@H]2[C@H](CN1C(=O)[C@@H](NC(=O)N[C@H](CN1CCCCC1=O)C(C)(C)C)C1(C)CCCCC1)C2(C)C)C(=O)C(=O)NC1CC1 (stereo partly shown) [Compound 5792],≤ 50 nM
18,CC(C)(C)[C@H](NC(=O)N[C@H](CN1CCCOC1=O)C(C)(C)C)C(=O)N1C[C@H]2[C@@H]([C@H]1C(=O)NC(CC1CC1)C(=O)C(N)=O)C2(C)C (stereo partly shown) [Compound 5698],≤ 50 nM
19,C=CCNC(=O)C(=O)C(CCC(F)(F)F)NC(=O)[C@@H]1[C@@H]2[C@H](CN1C(=O)[C@@H](NC(=O)N[C@H](CN1CCCN(C)C1=O)C(C)(C)C)C(C)(C)C)C2(C)C (stereo partly shown) [Compound 5692],> 50 nM
20,C=CCNC(=O)C(=O)C(CC1CCC1)NC(=O)[C@@H]1[C@@H]2[C@H](CN1C(=O)[C@@H](NC(=O)N[C@H](CN1Cc3ccccc3C1=O)C(C)(C)C)C1CCCCC1)C2(C)C (stereo partly shown) [Compound 5769],≤ 50 nM
21,C=CCNC(=O)C(=O)C(CCCC)NC(=O)[C@@H]1[C@@H]2[C@H](CN1C(=O)[C@@H](NC(=O)N[C@H](CN1C(=O)CCC(C)(C)C1=O)C(C)(C)C)C1CCCCC1)C2(C)C (stereo partly shown) [Compound 5817],≤ 50 nM

# Same assay, conditions: Table 4; Ki* values
row,Compound,Ki
1,C=CCNC(=O)C(=O)C(CCC)NC(=O)[C@@H]1[C@@H]2[C@H](CN1C(=O)[C@@H](NC(=O)N[C@H](CN1C(=O)c3ccccc3C1=O)C(C)(C)C)C(C)(C)C)C2(C)C (stereo partly shown) [Compound 5619],11 nM
